Laboratory results taken from the supplement of paper PMC10126150.
Values marked as one replicate rest on one cluster of the flow cell; about a third of the high ones do not repeat.

Tested on: ATP
Assay: switch fluorescence ratio, 500 uM ATP over buffer (Cy3 cluster intensity, sum of 5 cycles each) (fold (ratio)); higher = stronger signal-on switching upon ATP binding; sequences stand for … in TCGTCGGCAGCGTCAGATGTGTATAAGAGACAGTTTTTTTTTTTTTTTTTTTTTTTTT…TC
Conditions: aptamer strand: ATP DNA aptamer (quencher-CACCTGGGGGAGTATTGCGGAGGAAGG + anchor), 100 nM annealed; ATP concentration: 500 uM; one replicate
How it was run: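 Clusters carrying Cy3-labelled switching strands on a modified Illumina MiSeq flow-cell were annealed to 100 nM quencher-labelled ATP aptamer and imaged in selection buffer. They were imaged again after 15 min with 500 uM ATP at 22 °C, over five buffer/ATP cycles with NaOH stripping and re-annealing in between. For each cluster, the fluorescence ratio is the summed Cy3 intensity of the target cycles divided by that of the buffer cycles, averaged per switch-domain sequence. Clusters outside 100-1000 RFU were left out.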
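Also: ATP exposure 15 min at 22 °C before imaging.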

CACTGGACGA
switch fluorescence ratio: 1.3

CATCTCGAGG
switch fluorescence ratio: 0.996

AGGGCTGTTG
switch fluorescence ratio: 1.01

CCATTTGGTT
switch fluorescence ratio: 0.964

GAAAACATA
switch fluorescence ratio: 1.03

GGTAGATATA
switch fluorescence ratio: 0.971

AGGTAGAGAC
switch fluorescence ratio: 1.02

TTGTGGATTC
switch fluorescence ratio: 0.997

AGAAAACAAA
switch fluorescence ratio: 1.12

TTTGTGCTCA
switch fluorescence ratio: 1.03

GATAAAATTC
switch fluorescence ratio: 0.991

GCGTGGGCTT
switch fluorescence ratio: 1.01

CTGGTGCAGA
switch fluorescence ratio: 1.07

GTTAGTGCGT
switch fluorescence ratio: 0.949

AGGGCCTGAG
switch fluorescence ratio: 1.02

ACCCTGAGTC
switch fluorescence ratio: 1.17

GGGACTACGT
switch fluorescence ratio: 0.978

TAAGCTAAAG
switch fluorescence ratio: 0.991

ACCCAGACAA
switch fluorescence ratio: 1.07

ATGTCACAGC
switch fluorescence ratio: 0.981

GTAAGTTCTC
switch fluorescence ratio: 1

TGCTGAGCT
switch fluorescence ratio: 1.06

CCTAGGTCTG
switch fluorescence ratio: 0.997

AGTACGTGG
switch fluorescence ratio: 1

CAACAACCTC
switch fluorescence ratio: 1.03

CATTATACTC
switch fluorescence ratio: 1.08

CAGTAGCTGC
switch fluorescence ratio: 1.78

CTTGGGATGG
switch fluorescence ratio: 0.994

GAGTACCTCA
switch fluorescence ratio: 0.992

AAATAATCGC
switch fluorescence ratio: 1.02

TCTAGATATC
switch fluorescence ratio: 0.979

ATGCCCTCGG
switch fluorescence ratio: 0.968

GCCAAAGGAA
switch fluorescence ratio: 1.01

GGGTCCGACG
switch fluorescence ratio: 1.14

ATTAACAACA
switch fluorescence ratio: 1.01

TATGTTCCG
switch fluorescence ratio: 0.993

AGGGCTCA
switch fluorescence ratio: 1.01

GGAGCCCCC
switch fluorescence ratio: 1.01

ATGGGCCCTC
switch fluorescence ratio: 1.02

GTTAGGAACG
switch fluorescence ratio: 1.05

ATGAGCAGGA
switch fluorescence ratio: 1.07

GCTGGTTCGC
switch fluorescence ratio: 0.996

GACTGGAGTC
switch fluorescence ratio: 1

GGATTCTTAA
switch fluorescence ratio: 1.05

TATTTCACCT
switch fluorescence ratio: 1.12

CAATCTTTCG
switch fluorescence ratio: 0.969

TCTCGTCGCA
switch fluorescence ratio: 1.12

GCCTCAACGT
switch fluorescence ratio: 1.03

AGTGATGTA
switch fluorescence ratio: 0.969

ACCGTGATCG
switch fluorescence ratio: 1.06

AAGGTGATTG
switch fluorescence ratio: 0.965

GGATCGGTCC
switch fluorescence ratio: 0.994

CACCGCCGGG
switch fluorescence ratio: 1.07

ACCCAGTCT
switch fluorescence ratio: 1.07

GGGATACCC
switch fluorescence ratio: 0.969

GCTAGCATTT
switch fluorescence ratio: 1.03

CGCATCCGAA
switch fluorescence ratio: 1.02

TCCTGTAAAG
switch fluorescence ratio: 1.04

CTTTAGATAT
switch fluorescence ratio: 0.963

CCGACTTAGT
switch fluorescence ratio: 1.19

CGCTCTCCCG
switch fluorescence ratio: 2.3

ACCGCTAGGC
switch fluorescence ratio: 1.52

AGCGAACCCT
switch fluorescence ratio: 1.12

GCACAAGAGA
switch fluorescence ratio: 1.03

TATTTGGCG
switch fluorescence ratio: 0.928

TGGGTGGACG
switch fluorescence ratio: 1.01

GGGTCGAGTT
switch fluorescence ratio: 0.945

GCGGCACCAT
switch fluorescence ratio: 0.971

GGTTTAGTTC
switch fluorescence ratio: 0.996

TTCACGAGGA
switch fluorescence ratio: 1.02

GATTAATTAT
switch fluorescence ratio: 1.03

ACTTGTGCTG
switch fluorescence ratio: 1

ACCAATCGTT
switch fluorescence ratio: 1.01

TTTCGCAGTT
switch fluorescence ratio: 2.77

GCGCCGCTGC
switch fluorescence ratio: 1.58

ATAGTCCAGG
switch fluorescence ratio: 1.36

ACAATGTTGT
switch fluorescence ratio: 0.956

AGATTCTAGT
switch fluorescence ratio: 1

AGCGTGCACT
switch fluorescence ratio: 0.956

TGAGTGTTCG
switch fluorescence ratio: 1.01

AGGTGTTTGA
switch fluorescence ratio: 1.04

GTGGAGCGTG
switch fluorescence ratio: 1.03

ACAGGATGAA
switch fluorescence ratio: 1.01

TGCCCAGAAT
switch fluorescence ratio: 1.01

ACGGGTTTCA
switch fluorescence ratio: 1.01

AAGCGATAGC
switch fluorescence ratio: 1.03

CATCCTTTCT
switch fluorescence ratio: 1.06

GGGTAAAGCA
switch fluorescence ratio: 0.984

GGCAACCGCA
switch fluorescence ratio: 1.07

AAAGTCGGTT
switch fluorescence ratio: 1.03

CCCGACTAAT
switch fluorescence ratio: 1.18

TCTTCTAGTA
switch fluorescence ratio: 1.01

ACTGTCTGAA
switch fluorescence ratio: 0.965

TTATAAAAG
switch fluorescence ratio: 0.975

TTACTGTTAA
switch fluorescence ratio: 1.08

GGCAGTATAT
switch fluorescence ratio: 0.964

TTAATTACTA
switch fluorescence ratio: 0.997

TGATATGATT
switch fluorescence ratio: 0.994

CGAAATCTTT
switch fluorescence ratio: 1.03

TCAGACCGCG
switch fluorescence ratio: 0.998

GACTCGGGAC
switch fluorescence ratio: 1.24

GGGCATAATA
switch fluorescence ratio: 0.961

AAACGCATAG
switch fluorescence ratio: 1.47

CGAAGGGGAG
switch fluorescence ratio: 0.984

TACTGCAGTC
switch fluorescence ratio: 0.973

AAGGTGATAC
switch fluorescence ratio: 1.52

TATACGGTT
switch fluorescence ratio: 0.945

ATGTGTGAAC
switch fluorescence ratio: 1.04

TTGTGAGATG
switch fluorescence ratio: 1.01

TGCATTTTGA
switch fluorescence ratio: 0.979

GCTGTCTGCT
switch fluorescence ratio: 1

TAGATTAGAG
switch fluorescence ratio: 1.01

GTACGAGCAA
switch fluorescence ratio: 4.79

AACCAGTTGT
switch fluorescence ratio: 0.999

AGATAGAAAT
switch fluorescence ratio: 1.01

TTCGCGATAG
switch fluorescence ratio: 3.41

CTTGCCTGGC
switch fluorescence ratio: 0.967

ATGATACGTC
switch fluorescence ratio: 0.953

AGGGGGCTTG
switch fluorescence ratio: 1

TAGATAGACA
switch fluorescence ratio: 0.967

CCTTGTTTTG
switch fluorescence ratio: 0.95

CAAGTGAGCG
switch fluorescence ratio: 0.962

AGGGTACGGA
switch fluorescence ratio: 1.05

AAAGGAGCTC
switch fluorescence ratio: 1.04

GTGAATGGAA
switch fluorescence ratio: 0.966

GCCGTCCGTC
switch fluorescence ratio: 0.99

TTTGCGACGG
switch fluorescence ratio: 1.06

GACGTCAGGT
switch fluorescence ratio: 0.976

CCCTATACAG
switch fluorescence ratio: 1.04

AAGGTTGGCG
switch fluorescence ratio: 1.01

ACAATCCTCC
switch fluorescence ratio: 1.68

GTCTCGTTTA
switch fluorescence ratio: 0.984

CGGAGCGTAT
switch fluorescence ratio: 1.56

TGCCTAAGTC
switch fluorescence ratio: 1.03

AATCGAGAC
switch fluorescence ratio: 1.03

GAGGGCTTGC
switch fluorescence ratio: 0.997

CGCGAATTCG
switch fluorescence ratio: 0.989

GGTTAGTCAG
switch fluorescence ratio: 0.978

ACTTGCGCAA
switch fluorescence ratio: 2.59

TCACAAGACG
switch fluorescence ratio: 1.01

TTCACAATTT
switch fluorescence ratio: 0.959

TAGGTGTTT
switch fluorescence ratio: 1.03

AACGGTTGAA
switch fluorescence ratio: 1

CATACTGGTA
switch fluorescence ratio: 0.991

AAAACCGATG
switch fluorescence ratio: 1.03

TCATAGGTAT
switch fluorescence ratio: 0.973

GTAGTAAGAA
switch fluorescence ratio: 1.16

TTGGAGTCGT
switch fluorescence ratio: 0.973

ACCTACAAA
switch fluorescence ratio: 1.22

AAGTCTCCTG
switch fluorescence ratio: 0.989

TTTTTATTCA
switch fluorescence ratio: 1.03

AGCGGGAGCC
switch fluorescence ratio: 0.956

TACGGCATCG
switch fluorescence ratio: 1.09

AAGCTTGATC
switch fluorescence ratio: 0.994

GCAGTTTGCT
switch fluorescence ratio: 0.968

CAGGTGGTCG
switch fluorescence ratio: 1.05

CTCTATAGCA
switch fluorescence ratio: 1.1
